Measurements published in the supplement of paper PMC3334620.
In all, about 33,000 sequences were measured (“E-score (-0.5 to 0.5)”: median about -0.032, highest 2% from about 0.36 on). The list shows a part of the results.

Biological target: T1, Sko1 (UniProt Q02100)
T1 sequence: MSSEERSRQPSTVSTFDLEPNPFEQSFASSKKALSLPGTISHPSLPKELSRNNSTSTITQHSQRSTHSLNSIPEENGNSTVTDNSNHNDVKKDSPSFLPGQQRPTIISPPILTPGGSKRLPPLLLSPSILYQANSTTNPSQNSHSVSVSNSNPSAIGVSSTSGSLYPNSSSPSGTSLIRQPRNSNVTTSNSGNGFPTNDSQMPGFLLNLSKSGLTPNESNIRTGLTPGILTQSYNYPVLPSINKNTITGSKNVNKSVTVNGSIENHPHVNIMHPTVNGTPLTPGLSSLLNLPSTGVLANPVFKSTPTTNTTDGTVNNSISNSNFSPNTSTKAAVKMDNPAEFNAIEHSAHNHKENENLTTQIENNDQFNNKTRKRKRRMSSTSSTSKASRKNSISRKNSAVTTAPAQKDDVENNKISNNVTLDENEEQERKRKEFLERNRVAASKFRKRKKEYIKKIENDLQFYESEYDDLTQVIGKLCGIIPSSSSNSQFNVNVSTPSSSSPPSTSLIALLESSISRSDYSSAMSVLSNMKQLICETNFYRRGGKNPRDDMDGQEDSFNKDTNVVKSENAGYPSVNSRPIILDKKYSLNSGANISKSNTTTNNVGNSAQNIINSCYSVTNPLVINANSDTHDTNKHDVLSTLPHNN
Assay: PBM E-score (8-mer binding enrichment) (E-score (-0.5 to 0.5)); higher = stronger / more preferred TF binding; most listed sequences are background and not binding sites
Conditions: protein concentration: 200 nM; construct: GST-full length
Outline: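 Each ungapped eight-base word and its reverse complement, pooled, received an E-score from the Universal PBM Analysis Suite. Underlying scans, normalised with masliner, recorded fluorescent anti-GST bound to GST-tagged yeast transcription factors. These were applied at about 100-200 nM to universal all-10-mer Agilent arrays double-stranded by primer extension.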

| Sequence | PBM E-score |
| --- | --- |
| CCTCGTGC | -0.207 |
| CAAGCGAC | -0.0544 |
| ACTCATAG | 0.0586 |
| GCTTAGCA | -0.0816 |
| CCTCGGAA | -0.184 |
| GCACTAGA | -0.156 |
| AACGATAG | 0.0884 |
| ATACGTTA | 0.436 |
| CTAGCCCC | -0.218 |
| ATCAGAGC | -0.00388 |
| ACCCTCTA | -0.224 |
| ATAGTCCC | -0.199 |
| AACGACAC | 0.0493 |
| ATCCGGAA | -0.116 |
| ACATGGAT | 0.18 |
| AACTGCGT | 0.317 |
| AAAATTAT | 0.284 |
| CATCTTTA | 0.0696 |
| ATCTTCAT | 0.00049 |
| GATGAACA | 0.0426 |
| CTTGTTTC | 0.0414 |
| AACTTCGA | 0.0163 |
| CTCAGATA | 0.12 |

| Sequence | PBM E-score |
| --- | --- |
| CTTATTGC | -0.146 |
| AAGTATGT | 0.0767 |
| CAGGCGCA | -0.194 |
| AGAACGTG | 0.246 |
| AATAACAT | 0.194 |
| CAACCTTG | -0.0863 |
| CGGTGGGC | -0.195 |
| AGCAGTGC | -0.123 |
| TAGGCGGA | -0.0852 |
| TTGCGCAA | 0.287 |
| TAGGGTCA | -0.0745 |
| ACATCGAC | 0.0663 |
| AATTTACT | 0.174 |
| AGACCGCC | -0.249 |
| CCCGGACG | -0.0953 |
| ATCACCAA | 0.0298 |
| ATCCCACC | -0.13 |
| CGCATTTA | 0.0968 |
| CCCAGAGG | -0.256 |
| ATCCGAAG | -0.05 |
| AGGCGCAA | -0.0633 |
| TTCCGCAA | -0.163 |
| ATATCCCG | 0.044 |

| Sequence | PBM E-score |
| --- | --- |
| CATAGTAC | 0.0534 |
| GGTTCCGA | -0.251 |
| GAACCCTC | -0.252 |
| CGAACTAG | -0.00834 |
| CGTCTATC | 0.189 |
| CAGTTTCA | -0.107 |
| CTTGTAGA | -0.109 |
| GTACCCAC | -0.111 |
| GTAACATA | 0.0632 |
| GTTTGCTA | 0.119 |
| CCACTATC | -0.119 |
| TTAACGAA | 0.183 |
| AGGCACGC | 0.0182 |
| GAACTTAA | 0.0436 |
| CTTCCGCC | -0.176 |
| ATCATTGA | 0.272 |
| GTATGACA | 0.35 |
| ATGAGAGC | -0.0622 |
| TACGTCAA | 0.479 |
| CCTGAGCG | -0.0783 |
| AACTAATG | 0.158 |
| ACCATTAA | 0.246 |
| ATTCCTTA | 0.0463 |

| Sequence | PBM E-score |
| --- | --- |
| AACCCAGA | -0.178 |
| AACGGTGT | -0.203 |
| GCAGTGAA | 0.133 |
| CACACATA | 0.0532 |
| CAGTACTC | -0.219 |
| CTGTGCAA | -0.0253 |
| CCGTGACC | -0.28 |
| AGGCTCTC | -0.231 |
| CCCTAGTC | -0.293 |
| GAAGGCTC | -0.149 |
| CTGACGCA | 0.403 |
| CCACCGTA | -0.0821 |
| CTAAGAAC | -0.0466 |
| TCTTCGAA | -0.0561 |
| CACATGAA | 0.166 |
| ATAAGAAC | 0.12 |
| CAGCACGG | -0.21 |
| ACGAGTAG | 0.0721 |
| AACTTATA | 0.187 |
| ATCAGCGG | -0.159 |
| AATTTGCC | -0.129 |
| CTTCGACC | -0.0696 |
| ATACCAAT | -0.0776 |

| Sequence | PBM E-score |
| --- | --- |
| CAATGCCG | -0.128 |
| GATTAGCC | -0.151 |
| TATTCTCA | 0.0674 |
| AAATACGG | 0.14 |
| CCGTCAAG | -0.0482 |
| CAACGGGG | -0.137 |
| ATCACCAT | 0.141 |
| AACAATAA | 0.141 |
| CATTTAAC | 0.147 |
| CCCAAGGA | -0.251 |
| CTCGCCAC | -0.103 |
| ATTCACCG | 0.0212 |
| GTATCGAC | 0.121 |
| AACCATGT | 0.0529 |
| GCAACACA | -0.0249 |
| ACCGAATG | 0.104 |
| AGTCTAAC | -0.134 |
| AAACGCCG | 0.0595 |
| GAGAGGGC | -0.397 |
| ACCTCTGA | -0.142 |
| CGAGATGA | 0.0517 |
| CCCCTGGC | -0.409 |
| CAGTGAAG | -0.0921 |

| Sequence | PBM E-score |
| --- | --- |
| AACCTGGC | -0.122 |
| ATCTTGGG | -0.0925 |
| GACTAATC | -0.0517 |
| GTCCCAAC | -0.0885 |
| GTAGAGTA | 0.0442 |
| GGTCACAA | -0.151 |
| CAAGGTGC | -0.0355 |
| ACTAATTC | 0.125 |
| GATGCATC | 0.124 |
| AGCATTCA | 0.0119 |
| AAAGGCCC | -0.14 |
| ATCCATAA | 0.153 |
| AGTGATTC | 0.0268 |
| ACGGTAAT | 0.161 |
| ACATCAGA | 0.122 |
| AGACGTGC | 0.241 |
| AGCCTGTA | -0.17 |
| GCGTAAGA | 0.378 |
| AACGGAGG | -0.184 |
| GACTACCC | -0.128 |
| AATAGGCG | -0.19 |
| AAAATCCA | 0.133 |
| AACTCTGT | 0.0449 |

| Sequence | PBM E-score |
| --- | --- |
| CGCCTACC | -0.145 |
| ACCATCAC | 0.114 |
| GCGAACTA | 0.122 |
| AGCATTGC | -0.041 |
| CGACCGGC | -0.283 |
| GGGTACAA | -0.0777 |
| CGGCAAAG | -0.3 |
| ACGTTTCA | 0.333 |
| AAACATCT | 0.121 |
| GGTATCCA | -0.116 |
| AGTAATCG | 0.0515 |
| AACTAGCA | -0.0475 |
| GTTGGTCA | 0.169 |
| ACATCCTG | 0.0143 |
| AGATCTGC | -0.0271 |
| AGACTGCT | -0.152 |
| GCGTTCCC | -0.177 |
| GTCCTACA | 0.0593 |
| AGCATAAG | -0.153 |
| ACTTGATC | 0.0278 |
| GGACGTTA | 0.251 |
| AATCTGTA | 0.022 |
| ATCACATC | 0.0918 |
